{"source": "PubChem BioAssay AID938", "about": "(National Center for Advancing Translational Sciences (NCATS), 2007)", "note": "The campaign covered roughly 73,000 compounds. About 1,800 (2.5%) were called active. This list was built around the results that the source calls inconclusive (neither active nor inactive); the mix of calls is not that of the screen. Calls follow the shape of the dose curve; as a rule, active = well fitted activation curve with a large enough effect; inconclusive = small, poorly fitted or top-dose-only effect; inactive = no such curve, though single readings can be large or run the other way. No potency is given beside an inconclusive call; the fits are too rough. Potency is read from the fitted curve at half-maximal effect; tags tell the direction and shape of the fitted curve.", "data": [{"experiment": "qHTS Assay for Agonists of the Thyroid Stimulating Hormone Receptor: Activators of Intracellular cAMP Concentrations in Parental HEK 293; also: nearly all actives have a fitted effect of over 55% in size; as to activation: % of control where 0% means no effect", "details": "parental HEK293 CNG cAMP sensor, membrane potential fluorescence; activation: at 57.1 µM (top of the series) unless noted", "in_short": "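Parental HEK 293 cells stably expressing a cAMP-gated CNG channel were loaded with membrane potential dye containing 100 uM RO 20-1724 for 60 min. Compound added for 30 min; depolarization read as fluorescence intensity at 590 nm.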", "values": [{"smiles": "Cc1cc2nc(C(F)(F)F)[nH]c(=O)n2n1", "Potency": "inconclusive [activator, single point]"}, {"smiles": "Cc1ccc(-c2nc(C#N)c(NCc3cccc4c3OCO4)o2)cc1", "Potency": "inconclusive [activator, full curve]"}, {"smiles": "Cc1onc(-c2ccccc2)c1C(=O)Nc1ccccc1N1CCOCC1", "Potency": "inactive"}, {"smiles": "CCOc1ccccc1-c1nn2c(Cc3ccccc3)nnc2s1", "Potency": "inconclusive [activator, single point]"}, {"smiles": "Cc1cc(OCC(=O)NCc2nc(-c3ccccc3)no2)c(C)cc1Br", "Potency": "active: 31.6 µM"}, {"smiles": "Cc1cccc(-c2nnc(NC(=O)c3ccc(Cl)cc3)o2)c1", "Potency": "inactive"}, {"smiles": "C=CCn1c(NCc2ccccc2)nc2ccccc21", "Potency": "inactive"}, {"smiles": "COC(=O)c1c(NC(=O)CCc2ccc(C)o2)sc(C)c1C", "Potency": "inconclusive [activator, single point]"}, {"smiles": "COc1ccc2cc(CCNC(=O)c3ccc(Br)o3)c(=O)[nH]c2c1", "Potency": "inconclusive [activator, single point]"}, {"smiles": "Br/C(=N\\Nc1nn[nH]n1)c1ccncc1", "activation": "inactive: 2.29% [at 11.4 µM]"}, {"smiles": "c1ccc(C2=Nn3c(nnc3-c3n[nH]c4c3CCC4)SC2)cc1", "Potency": "inactive"}, {"smiles": "COc1ccc(NS(=O)(=O)c2ccc3c(c2)Cc2ccccc2-3)cn1", "Potency": "inconclusive [activator, partial curve]"}, {"smiles": "COc1ccc(CCNC(=O)CSc2nc(-c3ccco3)cc(C(F)(F)F)n2)cc1", "Potency": "inconclusive [activator, partial curve]"}, {"smiles": "COCC(=O)N(Cc1cc2cc(OC)ccc2[nH]c1=O)c1ccccc1", "Potency": "inactive"}, {"smiles": "Cn1cnnc1SCC(=O)N1CCC(Cc2ccccc2)CC1", "Potency": "inconclusive [activator, single point]"}, {"smiles": "CCCCNc1ncnc2c1cnn2-c1ccccc1", "Potency": "inconclusive [activator, partial curve, poor fit]"}, {"smiles": "O=C(CSc1nnc(-c2cccs2)o1)OCc1ccccc1", "Potency": "inconclusive [activator, single point]"}, {"smiles": "Cc1cc(NC(=O)CSc2nnc(-c3ccc4c(c3)OCCO4)o2)no1", "Potency": "inconclusive [activator, single point]"}, {"smiles": "COc1ccccc1OCC(=O)N(Cc1nc(-c2ccccc2)no1)C1CCCCC1", "Potency": "inconclusive [activator, single point]"}, {"smiles": "Cc1noc(C)c1COC(=O)c1ccc2c(c1)OCO2", "Potency": "inactive"}, {"smiles": "COC(=O)c1cc(-c2ccc(OC)c(OC)c2)n[nH]1", "Potency": "inactive"}, {"smiles": "O=C(O)c1cccc(C(=O)O)c1S(=O)Cc1ccccc1", "note": "(stereo unspecified)", "activation": "inactive: 1.69% [at 11.4 µM]"}, {"smiles": "COc1ccc(C(=O)C(c2ccccc2)N2CCOCC2)cc1", "note": "(stereo unspecified)", "Potency": "inactive"}, {"smiles": "O=C(Cn1cc2c(n1)CCCCC2)N1CCc2ccccc21", "Potency": "inconclusive [activator, partial curve, poor fit]"}, {"smiles": "Cc1ccc(C2CC(=O)N3CN(c4ccc(Br)cc4)CSC3=C2C#N)o1", "note": "(stereo unspecified)", "Potency": "inactive"}, {"smiles": "O=C(NC1CCCCC1)C(c1ccco1)N(Cc1cccs1)C(=O)Cn1nnc2ccccc21", "note": "(stereo unspecified)", "Potency": "active: 15.8 µM"}, {"smiles": "COc1ccc2[nH]c(=O)c(C(c3nnnn3C3CCCC3)N(C)C3CCCCC3)cc2c1", "note": "(stereo unspecified)", "Potency": "inconclusive [activator, partial curve]"}, {"smiles": "CNC(=O)[C@@H]1O[C@@H](n2cnc3c(N)ncnc32)[C@@H](O)[C@H]1O", "Potency": "active: 3.16 µM"}, {"smiles": "O=C(Oc1ccccc1)N1CCC2(CCCN(c3cccc(-c4ccccc4)c3)C2)CC1", "Potency": "inconclusive [activator, single point]"}, {"smiles": "CCOC(=O)C1CCN(CC(=O)N2C(C)CCCC2C)CC1", "note": "(stereo unspecified)", "Potency": "inactive"}, {"smiles": "COc1ccc(-n2nc3cc(C)c(N)c(Br)c3n2)cc1", "Potency": "inactive"}, {"smiles": "N#Cc1nc(N)nc(N(c2ccccc2)c2ccccc2)n1", "Potency": "inconclusive [activator, single point]"}, {"smiles": "CC(C)N(Cc1ccccc1)S(=O)(=O)c1n[nH]c(C(C)(C)C)n1", "activation": "inactive: 8.67% [at 11.4 µM]"}, {"smiles": "COc1ccccc1NC(=O)CSc1ncn[nH]1", "Potency": "inconclusive [activator, single point]"}, {"smiles": "CCOC(=O)C1=C(C)S/C(=C\\N(C)C)C1=O", "Potency": "inconclusive [activator, single point]"}, {"smiles": "CN(C)CC(C)(C)CNC(=O)c1ccc(Cc2nc3ccccc3[nH]2)cc1", "Potency": "inactive"}, {"smiles": "Cc1nnc(NC(=O)c2ccccc2F)s1", "Potency": "inactive"}, {"smiles": "Cc1cnc(CNc2ncnc3ccc(-c4ccccc4Cl)cc23)cn1", "Potency": "inconclusive [activator, partial curve]"}, {"smiles": "CCc1c(C)nc2ncnn2c1NCCc1ccc(OC)cc1", "Potency": "inconclusive [activator, partial curve]"}, {"smiles": "Cc1cccc(N2CCN(C(c3cccs3)c3nnnn3C(C)(C)C)CC2)c1C", "note": "(stereo unspecified)", "Potency": "inconclusive [activator, partial curve]"}, {"smiles": "CC(C(=O)NCCC1=CCCCC1)N1C(=O)c2ccccc2C1=O", "note": "(stereo unspecified)", "Potency": "inconclusive [activator, single point]"}, {"smiles": "C=CCn1c(SCC(=O)c2ccccc2)nnc1-c1cc2ccccc2o1", "Potency": "active: 31.6 µM"}, {"smiles": "Cc1cc(Br)ccc1OCC(=O)N(Cc1nc(-c2ccccc2)no1)C(C)C", "Potency": "active: 10 µM"}, {"smiles": "c1ccc(CSCc2cn3ccsc3n2)cc1", "Potency": "inconclusive [activator, single point]"}, {"smiles": "Cc1onc(-c2ccccc2)c1C(=O)N1CCN(C(=O)c2ccco2)CC1", "Potency": "inconclusive [activator, single point]"}, {"smiles": "CCc1ccc(NC(=O)CCn2c(=O)oc3ccccc32)cc1", "Potency": "inactive"}, {"smiles": "CCCCn1c(=S)[nH]c2c(oc3ccc(Cl)cc32)c1=O", "Potency": "inconclusive [activator, partial curve]"}, {"smiles": "O=S(=O)(c1ccc(F)cc1)N1CN(Cc2ccco2)c2nc3ccccc3nc21", "Potency": "inconclusive [activator, partial curve]"}, {"smiles": "CC1CCN(c2nc(-c3ccncc3)nc3ccccc23)CC1", "Potency": "inconclusive [activator, partial curve]"}, {"smiles": "CN1c2ccccc2C(C)(C)C12CCCC(=O)N2", "note": "(stereo unspecified)", "Potency": "inactive"}, {"smiles": "CCCn1nnc(NC(=O)c2cccc(OCC(C)C)c2)n1", "Potency": "inconclusive [activator, single point]"}, {"smiles": "O=P(O)(OCc1ccccc1)OCc1ccccc1", "Potency": "inconclusive [activator, partial curve]"}, {"smiles": "CSc1nc(NC(C)C)nc(N2CCOCC2)n1", "Potency": "inactive"}, {"smiles": "CC(=O)NCCNc1nc(-c2ccccc2Cl)nc2ccccc12", "Potency": "inactive"}, {"smiles": "COc1ccc(CCNc2ncnc3nc[nH]c23)cc1OC", "Potency": "inconclusive [activator, partial curve]"}, {"smiles": "COc1ccc(CCC(=O)Nc2ccc(Br)cn2)cc1", "Potency": "inconclusive [activator, partial curve]"}, {"smiles": "C#CCCCO/N=C1/C[C@@H](O)[C@@H](O)[C@@H]2[C@@H]3C(=O)N(C4CCCCC4)C(=O)[C@H]3CC[C@H]12", "activation": "inactive: 14% [at 11.4 µM]"}, {"smiles": "Cc1cccc(CNc2ncnc3ccc(-c4cccc(C#N)c4)cc23)c1", "Potency": "inconclusive [activator, full curve]"}, {"smiles": "Cc1oc(-c2cccc(Cl)c2)nc1CN1CCC(C(=O)N2CCN(c3ccccc3F)CC2)CC1", "Potency": "inconclusive [activator, single point]"}, {"smiles": "O=C1NC(c2ccccc2)(C(F)(F)F)SC2=CCCCCN12", "note": "(stereo unspecified)", "Potency": "inconclusive [activator, full curve, poor fit]"}, {"smiles": "O=C(O)Cn1cc(C(=O)c2ccco2)c2ccccc21", "Potency": "inactive"}, {"smiles": "CN1CCN(c2ccccc2NC(=O)c2cc(Br)ccc2Cl)CC1", "Potency": "inactive"}, {"smiles": "Cc1ccc(S(=O)(=O)Cn2nnnc2CN(Cc2ccco2)Cc2cccs2)cc1", "Potency": "inconclusive [activator, partial curve]"}, {"smiles": "COc1ccc(CCNC(=O)CC2Nc3ccccc3NC2=O)cc1OC", "note": "(stereo unspecified)", "Potency": "inactive"}, {"smiles": "COc1ccc(NC(=O)c2ccc(-c3ccc(-c4noc(C)n4)cc3C)cc2)cc1N1CCN(C)CC1", "Potency": "inconclusive [activator, single point]"}, {"smiles": "COC(=O)[C@@]1(Cc2ccc(F)cc2)[C@H]2c3cc(C(=O)N(C)C)n(Cc4ccc(C)o4)c3C[C@H]2CN1C(=O)c1ccccc1", "Potency": "active: 3.16 µM"}, {"smiles": "CC(=O)NC1Sc2ccccc2N=C1c1ccccc1", "note": "(stereo unspecified)", "Potency": "inconclusive [activator, partial curve]"}, {"smiles": "COCCn1c(C)cc(C(=O)CSc2nc(C)nc3sc4c(c23)CCC4)c1C", "Potency": "inconclusive [activator, single point]"}, {"smiles": "CC(C)(CO)[C@H](O)C(=O)NCCCO", "Potency": "inactive"}, {"smiles": "O=C(CCCN1C(=O)c2ccccc2C1=O)N1CCN(c2ccccn2)CC1", "Potency": "inactive"}, {"smiles": "COC(=O)c1ccccc1NC(=O)C1CCCCC1C(=O)O", "note": "(stereo unspecified)", "Potency": "inconclusive [activator, single point]"}, {"smiles": "CC1(C)CC(=O)c2cc(C(=O)NC3CCSC3=O)c(=O)n(-c3ccccc3)c2C1", "note": "(stereo unspecified)", "Potency": "inconclusive [activator, single point]"}, {"smiles": "C=CCN(c1ccc(C(=O)N2CCCC2)cc1)S(C)(=O)=O", "Potency": "inconclusive [activator, single point]"}, {"smiles": "[O-][N+]1=c2ccc(Nc3ccccc3)cc2=NC12CCCCC2", "Potency": "inactive"}, {"smiles": "CN(C)c1ccc(C=Nc2ccc(N(C)C)cc2)cc1", "Potency": "inactive"}, {"smiles": "O=C(Nc1c2c(nn1-c1ccc(F)cc1)CS(=O)(=O)C2)C12CC3CC(CC(C3)C1)C2", "Potency": "active: 15.8 µM"}]}]}
